Out of some 94,000 compounds screened, about 4,000 (4.3%) were called active. This list was built around the results that the source calls inconclusive (neither active nor inactive); the mix of calls is not that of the screen. Calls come from the whole dose curve; as a rule, active = well fitted inhibition curve with a large enough effect; inconclusive = small, poorly fitted or top-dose-only effect; inactive = no such curve, though single readings can be large or run the other way. Where the call is inconclusive, the potency comes from a doubtful curve fit.
Experiment: Cytotoxic Profiling in NIH 3T3 Cell Line of Diverse Libraries Using Quantitative High-Throughput Screening; note: nearly all actives have a fitted effect of over 55% in size
Details: NIH 3T3 viability, CellTiter-Glo ATP luminescence, 48-72 h; series mostly up to 96.7 µM
Outline: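 NIH 3T3 cells at 400 cells/well received 23 nL of compound by pintool and were incubated 48 or 72 h at 37 °C. Viability was read as ATP-coupled CellTiter-Glo luminescence.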
Potency is the fitted concentration of half-maximal effect; tags give direction and shape of the fitted curve.

SMILES | Potency
C1=C(c2cc(-c3ccncc3)cn3cncc23)CCOC1 | active: 25.1 µM
O=C(c1ccc2c(c1)CC(=O)N2Cc1ccccc1)N1CCN(C2CCCCC2)CC1 | inconclusive: 50.1 µM [inhibitor, partial curve, poor fit]
O=C(NCCCc1ccccc1)c1n[nH]c2c1CN(C(=O)c1ccccc1F)CC2 | active: 35.5 µM
O=C(NCc1cccc(C(F)(F)F)c1)c1ccc2nnc(-c3cc(C(F)(F)F)cc(C(F)(F)F)c3)n2c1 | active: 20 µM
O=C(c1ccc(F)cc1)N1CCC(n2cc(-c3nc(-c4ccccc4)no3)nn2)CC1 | inconclusive: 20 µM [inhibitor, full curve, poor fit]
CC1=C[C@@H](CNCc2cccnc2)[C@H](C(C)C)C[C@H]1Cc1nnc(-c2ccc(N(C)C)cc2)o1 | inconclusive: 44.7 µM [inhibitor, partial curve, poor fit]
Cc1ccc(CN2CCC3(CC2)OC(=O)N(Cc2ccc(O)cc2)C3(C)c2ccccc2)o1 (configuration not stated) | inconclusive: 44.7 µM [inhibitor, partial curve, poor fit]
Cc1nc(C2CC23CCN(S(=O)(=O)c2c(C)noc2C)CC3)no1 (configuration not stated) | inconclusive: 56.2 µM [inhibitor, partial curve, poor fit]
O=C(NCCc1ccccc1)[C@@H]1C[C@@H](c2ccc(F)cc2)N([S+](=O)([O-])c2cccnc2)C1 | inconclusive: 28.2 µM [inhibitor, full curve, poor fit]
Cc1nn(-c2ccccc2)c2c1C(C1CC1)N(C1CN(C(=O)c3ccc4c(c3)OCO4)C1)C2=O (configuration not stated) | inconclusive: 14.1 µM [inhibitor, full curve]
COc1ccc(-c2cc(C(=O)NC3CCCCC3)c3cnn(C)c3n2)cc1 | inconclusive: 39.8 µM [inhibitor, partial curve]
CC(=O)N1CCC(N2C[C@H](NC(=O)c3ccoc3C)[C@@H](C3CC3)C2)CC1 | inactive
CC(=O)N1Cc2ccccc2CC2(CCCN(CCc3ccc(C)cc3)C2)C1 (configuration not stated) | inactive
Cc1ccc(Nc2ccnc(N3CCC(C(=O)N4CCCC4C)CC3)n2)cc1 (configuration not stated) | inconclusive: 39.8 µM [inhibitor, partial curve, poor fit]
Cc1nn(-c2ccccc2)c2c1C(C)N(C1CCCN(C(=O)Nc3ccccc3)C1)C2=O (configuration not stated) | inconclusive: 50.1 µM [inhibitor, partial curve, poor fit]
O=C(NCc1ccc(Cl)cc1)C1CCN(c2nccc(Nc3ccccc3F)n2)CC1 | active: 28.2 µM
O=C(Nc1ccc(F)c(Cl)c1)C1CCc2sc(C(=O)N3CCOCC3)cc2C1 (configuration not stated) | inconclusive: 35.5 µM [inhibitor, partial curve, poor fit]
